Data: ChEMBL document CHEMBL4888484, “Replenishing the malaria drug discovery pipeline: Screening and hit evaluation of the MMV Hit Generation Library 1 (HGL1) against asexual blood stage Plasmodium falciparum ,using a nano luciferase reporter read-out” (2022)
In all, about 150,000 compounds went through this assay and about 540 (0.36%) showed an effect of 50% or more. The list shows a part of the results.

What follows are compounds tested on Plasmodium falciparum (assay: Primary screen in NF54 nanoGlo assay, in single point, at 2uM, 72h; a lower Z score goes with more inhibition). Conditions: timepoint 72 hour.
Type: functional, Erythrocyte
For `O=C(NCC1CCCCC1)[C@H]1CCCN(c2nnc3ccc(Cl)cn23)C1`, the “% Inhibition” value was -6% and the Z score was 0.61. For `O=C(COc1cccnc1)NC[C@H]1COCCO1`, the “% Inhibition” value was 0% and the Z score was 0.04. `Cc1cccc2c1cc(C(=O)NCc1nc(-c3cnccn3)n[nH]1)n2C` was tested, and the “% Inhibition” value was 3% and the Z score was -0.49. In the case of `O=C(O)c1c(NC(=O)C2CCCCC2)sc2c1CCC2`, the “% Inhibition” value is reported as -12% and the Z score is reported as 1.68. With `O=C(Cc1ccc2c(c1)OCO2)N1CCN(C(=O)c2nc[nH]n2)CC1` the “% Inhibition” value was -4% and the Z score was 0.78. For `Cc1cccc(-n2nc3nc(NCC4CC4)nc(-c4ccc(Cl)cc4)c3c2N)c1`, the “% Inhibition” value was -6% and the Z score was 0.64. `Cc1ccc(O)c(CN(CCC(F)(F)F)C2CCC2)n1` was tested, and the “% Inhibition” value was 4% and the Z score was -0.68. For `O=C(NC1CC1)c1nn(-c2cccc(C(F)(F)F)c2)c(=O)n(Cc2ccc(F)cc2)c1=O`, the “% Inhibition” value was -10% and the Z score was 1.36. For `O=C1COc2ccc(-c3cc(-c4ccccc4)c4c(n3)-c3cc(Cl)ccc3OC4)cc2N1`, the “% Inhibition” value was -5% and the Z score was 0.57. `CCc1ccccc1N(C(C)=O)c1nc(CN[C@H](c2ccccc2)c2cccs2)cs1` was tested, and the “% Inhibition” value was 26% and the Z score was -3.47. For `C[C@H]1Cc2cc(C(=O)NCCCOc3cccnc3)ccc2O1`, the “% Inhibition” value was -11% and the Z score was 1.74. In the case of `Cn1cncc1CCC(=O)Nc1nc(-c2ccc3c(c2)OCO3)cs1`, the “% Inhibition” value is reported as -19% and the Z score is reported as 2.64. In the case of `COc1cc2c(cc1OC)CN(C(=O)[C@@H]1C[C@@H](NCc3ccc(F)cc3F)CN1C/C=C/c1ccccc1)CC2`, the “% Inhibition” value is reported as -13% and the Z score is reported as 1.5. In the case of `Cc1ccc(CC2CCN(c3nc(C(N)=O)cs3)CC2)cc1C`, the “% Inhibition” value is reported as -21% and the Z score is reported as 4.09. With `CCC(CC)C(=O)NCc1cn([C@H]2CCOC2=O)nn1` the “% Inhibition” value was 1% and the Z score was -0.17. With `Cc1cc(=O)c(C(=O)NC[C@H](C)n2ccnc2)c(C)[nH]1` the “% Inhibition” value was 1% and the Z score was -0.26. In the case of `COc1ccc(C(=O)Nc2ccc(O)c(C)c2)cc1-c1ccccn1`, the “% Inhibition” value is reported as -10% and the Z score is reported as 0.98. For `CS(=O)(=O)Nc1nc2c(s1)C[C@@H](c1ccccc1)CC2`, the “% Inhibition” value was -8% and the Z score was 1.06. With `CC(=O)N[C@@H]1C[C@H](CC(C)C)O[C@H](c2cccc(C#N)c2)C1` the “% Inhibition” value was 2% and the Z score was -0.34. `CCCS(=O)(=O)N1CCc2c(C(=O)N(C)C)nc(C)n2CC1` was tested, and the “% Inhibition” value was 1% and the Z score was -0.16. With `CC(=O)N[C@H]1CCN(C(=O)c2cc(-c3ccc(O)cc3)n[nH]2)C1` the “% Inhibition” value was -3% and the Z score was 0.53. In the case of `O=C1NC(O)(C(F)(F)F)C(=O)N2CCCC12` (stereo unspecified), the “% Inhibition” value is reported as 35% and the Z score is reported as -3.91. With `COC(=O)c1cc(C)nc2c1c(=O)n(CC(=O)N1CCCCC1)c(=O)n2-c1cccc(OC)c1` the “% Inhibition” value was -10% and the Z score was 1.28. In the case of `Oc1cccc(-c2ccc(-c3cn[nH]c3)cc2)n1`, the “% Inhibition” value is reported as -4% and the Z score is reported as 0.53. With `O=C(N[C@H]1CCc2ccccc21)c1ccc(CN2CCOCC2)cc1` the “% Inhibition” value was -13% and the Z score was 2.39. With `CCCC(=O)N1CCC(c2nccs2)CC1` the “% Inhibition” value was -7% and the Z score was 0.97. In the case of `COc1ccc(CN2C[C@H]3CN(C(=O)C(C)C)C[C@@]3(CO)C2)cc1Cn1cccn1`, the “% Inhibition” value is reported as -9% and the Z score is reported as 1.22. `CCOC(=O)N1CCN(C(=O)[C@H](CC(C)C)NC(=O)NCc2ccc(C)cc2)CC1` was tested, and the “% Inhibition” value was -5% and the Z score was 0.92. For `O=C(C1CCN(C2CCN(Cc3cc4ccccc4o3)CC2)CC1)N1CCOCC1`, the “% Inhibition” value was -20% and the Z score was 1.77. In the case of `COc1ccc(N2CCN(Cn3c(-c4ccccc4)nsc3=S)CC2)cc1`, the “% Inhibition” value is reported as -42% and the Z score is reported as 4.92. With `O=C(CCCCC1C2NC(=O)NC2CS1(=O)=O)Nc1ccc2c(c1)CCC2` (stereo unspecified) the “% Inhibition” value was -8% and the Z score was 1.3. In the case of `CNC(=O)[C@@H]1CN(S(=O)(=O)CCCCC(F)(F)F)CCO1`, the “% Inhibition” value is reported as -1% and the Z score is reported as 0.2. `COc1ccc(NC2CCN(CCC(F)(F)F)CC2)cn1` was tested, and the “% Inhibition” value was -9% and the Z score was 1.41. For `Cc1cc2c(cc1NS(C)(=O)=O)c1c(n2S(C)(=O)=O)CC(C)(C)CC1=O`, the “% Inhibition” value was 3% and the Z score was -0.44. For `Cc1cc(C#N)c(NCC[C@H]2CCCOC2)nc1C`, the “% Inhibition” value was -8% and the Z score was 1.09. In the case of `Cn1nccc1CNC(=O)[C@]1(c2ccccc2)CCC(=O)NC1`, the “% Inhibition” value is reported as -7% and the Z score is reported as 0.93. For `C[C@@H](C(=O)Nc1ccc(F)c(Cl)c1)S(C)(=O)=O`, the “% Inhibition” value was 2% and the Z score was -0.23. For `O=C(CN1CCOC1=O)NC[C@H]1CC(Cc2ccc(F)cc2)=NO1`, the “% Inhibition” value was -10% and the Z score was 1.16. For `O=C(c1ccc2noc(-c3ccccc3)c2c1)N1CCC1`, the “% Inhibition” value was 3% and the Z score was -0.57. For `O=C(C1CCCCC1)N1CCc2cc(S(=O)(=O)N3CCOCC3)ccc21`, the “% Inhibition” value was -11% and the Z score was 1.52. With `N#Cc1ccc(C(=O)N[C@H]2CC=CC[C@@H]2C(N)=O)cc1` the “% Inhibition” value was -11% and the Z score was 1.58. In the case of `O=C(Cn1cc(Cl)cn1)N(C1CCCC1)[C@H]1CCS(=O)(=O)C1`, the “% Inhibition” value is reported as -19% and the Z score is reported as 1.63. In the case of `Cc1ccc(-c2cc(C(=O)N3CCN(c4cccc(C)c4C)CC3)c(C)[nH]2)cc1C`, the “% Inhibition” value is reported as -2% and the Z score is reported as 0.26. For `Cc1nn(-c2nc3ccccc3s2)c(O)c1C(c1ccccc1Cl)c1c(C)nn(-c2nc3ccccc3s2)c1O`, the “% Inhibition” value was 6% and the Z score was -0.95. With `CNC(=O)c1sc(NC2CCOCC2)nc1C` the “% Inhibition” value was -11% and the Z score was 2.16. `Cc1ccc(C)c(OCC(=O)N(C[C@H](O)c2ccc(F)cc2)C2CC2)c1` was tested, and the “% Inhibition” value was -9% and the Z score was 1.88. `CCn1c(C)nc2cc(NS(=O)(=O)c3ccccc3)cc(C(=O)NCc3cccc(OC)c3)c21` was tested, and the “% Inhibition” value was 4% and the Z score was -0.76. In the case of `CO[C@H]1C[C@@H](C(=O)N2CCCc3c2ccc2[nH]cnc32)N(C)C1`, the “% Inhibition” value is reported as -3% and the Z score is reported as 0.62. `CCCc1nc(CN2CC(n3cc(C)cn3)C2)no1` was tested, and the “% Inhibition” value was -16% and the Z score was 2.09. With `CCC1(CC)CCCN1C(=O)c1nccs1` the “% Inhibition” value was -11% and the Z score was 0.94. In the case of `COC1C2CC3CN(C(=O)Nc4ccnnc4C)C1C3C2` (stereo unspecified), the “% Inhibition” value is reported as -10% and the Z score is reported as 1.58. For `COc1ccc(CC(=O)Nc2cnc(-c3ccc(C)cc3)nc2)cc1`, the “% Inhibition” value was -16% and the Z score was 1.42. For `CN(CC(=O)Nc1cccnc1)C1CCCCC1`, the “% Inhibition” value was -14% and the Z score was 1.95. With `O=C(COC(=O)c1c(F)cccc1F)NC(=O)NC1CCCC1` the “% Inhibition” value was 6% and the Z score was -0.95. With `CN(C)c1ccc(C[C@@H]2C(=O)Nc3ccc(Br)cc32)cc1` the “% Inhibition” value was -25% and the Z score was 2.21. In the case of `Cc1nn(C)c2nc(N3CCN(c4cnccn4)CC3)sc12`, the “% Inhibition” value is reported as -1% and the Z score is reported as 0.27. In the case of `Cc1c(O)cccc1C(=O)N1CCN(C(=O)CC(C)C)[C@@H]2CS(=O)(=O)C[C@@H]21`, the “% Inhibition” value is reported as -12% and the Z score is reported as 1.34. In the case of `CCCn1ccnc1-c1cn(Cc2cc3ccccc3[nH]2)nn1`, the “% Inhibition” value is reported as 41% and the Z score is reported as -7.14. With `CCc1ccccc1C(=O)N[C@H](C(=O)OC)C(C)C` the “% Inhibition” value was -14% and the Z score was 1.61. In the case of `c1nc2c(c(Oc3ccc(-c4nnco4)cc3)n1)CCCC2`, the “% Inhibition” value is reported as -13% and the Z score is reported as 1.48. With `Cc1cccc(C(=O)N2CCCS2(=O)=O)n1` the “% Inhibition” value was -8% and the Z score was 1.07. `Cc1ccc(-n2c(=O)c3ccccc3n(CC(=O)NCc3cccnc3)c2=O)cc1C` was tested, and the “% Inhibition” value was -5% and the Z score was 0.98. In the case of `CCC(=O)N(Cc1csc(COc2c(OC)cccc2OC)n1)C1CC1`, the “% Inhibition” value is reported as -4% and the Z score is reported as 0.72. For `CC1CCCCC1NC1=C(C(=O)N2CCOCC2)S(=O)(=O)c2ccccc21` (stereo unspecified), the “% Inhibition” value was -4% and the Z score was 0.64. For `O=C1CN(C(=O)Cc2cc3ccccc3s2)CCN1CCO`, the “% Inhibition” value was 1% and the Z score was -0.15. `CCNC(=O)N[C@H]1CCN(C2CCCCCC2)C1` was tested, and the “% Inhibition” value was 1% and the Z score was -0.09. For `CC(=O)NCc1ccc(-c2ccnc(C)c2)nc1`, the “% Inhibition” value was 3% and the Z score was -0.4. For `O=C1C(N2C(=O)[C@H]3CCCN3C2=O)CCN1c1ccccc1` (stereo partly specified), the “% Inhibition” value was 1% and the Z score was -0.08. For `CCOc1ccc(-c2ccnc3c(C(=O)NCCc4c[nH]c5ccc(OC)cc45)cnn23)cc1`, the “% Inhibition” value was 22% and the Z score was 0.3. `Cc1ccc(-n2nnc(C(=O)N3CCC(c4nc5ccccc5o4)CC3)c2C(C)C)cc1` was tested, and the “% Inhibition” value was 7% and the Z score was -0.89. `CN1C(=O)Cc2cc(S(=O)(=O)CCC(=O)N3CCn4c3nc3ccccc34)ccc21` was tested, and the “% Inhibition” value was -16% and the Z score was 2.13. With `Cc1nc([C@H]2CC23CCN(S(=O)(=O)N(C)C)CC3)no1` the “% Inhibition” value was -15% and the Z score was 2.23. For `CCN(CC1CCN(C2CCN(C)CC2)CC1)C(=O)CCC(=O)c1ccccc1`, the “% Inhibition” value was 4% and the Z score was -0.76. In the case of `O=C(NCCc1cn[nH]c1)c1cccc(F)c1F`, the “% Inhibition” value is reported as -7% and the Z score is reported as 1.28. In the case of `CCC[C@@H](C(=O)NCc1cccnc1-n1ccnc1)c1ccccn1`, the “% Inhibition” value is reported as -7% and the Z score is reported as 0.65. In the case of `CC1(C)CC2(CO1)CC(NC(=O)N[C@H]1C[C@H](c3cccc(F)c3)C1)C2` (stereo partly specified), the “% Inhibition” value is reported as -5% and the Z score is reported as 0.63. With `CCOc1ccc(CN[C@H]2CCCO[C@@H]2c2nccn2CC)nc1` the “% Inhibition” value was -6% and the Z score was 0.59. `Cc1cccc2nc(-c3cccnc3)c(NC3CCCCC3)n12` was tested, and the “% Inhibition” value was -5% and the Z score was 0.78. In the case of `Cc1c([C@@H](C)NC(=O)N2CCC(c3nncn3C)CC2)oc2ccccc12`, the “% Inhibition” value is reported as -10% and the Z score is reported as 1.85. In the case of `CC(C)CCN1C[C@]2(CCCN(C(=O)c3cc[nH]n3)C2)CCC1=O`, the “% Inhibition” value is reported as 4% and the Z score is reported as -0.57. In the case of `CCn1nc(CN2CCC[C@H](NC(=O)c3ccc(F)c(F)c3)C2)c2c1CCOC2`, the “% Inhibition” value is reported as -7% and the Z score is reported as 0.61. With `COc1cc2c(cc1NC(=O)N1CCC(F)(F)CC1)n(C)c(=O)n2C` the “% Inhibition” value was 0% and the Z score was 0.05. For `CN1C[C@@H](NC(=O)CCc2cncs2)CCC1=O`, the “% Inhibition” value was -5% and the Z score was 0.69.
